# Test results: the supplement of paper PMC12645437, “Orthogonal IMiD-Degron Pairs Induce Selective Protein Degradation in Cells” (ACS Chemical Biology, 2025)
# The list shows a part of the results.
# Biological target: no compound (DMSO)
# Test: log2 fold change of degron read counts, EGFP-low vs EGFP+ sorted cells; higher = lower degron-EGFP level without compound (poor expression or instability)
# Settings: compound: DMSO control; 18 h
# 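Note: jurkat cells carrying a lentiviral library of mutant zinc finger degrons fused to EGFP plus mCherry, mCherry+ cells FACS sorted, degron abundance counted by next-generation sequencing.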
row,Sequence,log2 fold change of degron read counts
1,LNCNQCGFHCTQKGNLLRHIKL,1.2
2,FECDICGADFTQKGNLLRHIKL,-1.91
3,FNCPICGASFTQKGNLLRHIKL,-0.0763
4,FFCNQCGRHFTQKGNLLRHIKL,1.07
5,FMCPICGASFTQKGNLLRHIKL,-0.69
6,FLCEICGHYFTQKGNLLRHIKL,-0.128
7,FGCPICGHHFTQKGNLLRHIKL,-0.09
8,FVCPICGRIFTQKGNLLRHIKL,0.164
9,FACNQCGHNFTQKGNLLRHIKL,0.0902
10,FKCDVCGADFTQKGNLLRHIKL,-2.48
11,FGCNQCGAMFTQKGNLLRHIKL,-0.0569
12,FNCNVCGAGFTQKGNLLRHIKL,-0.92
13,FCCEVCGAVFTQKGNLLRHIKL,-1.06
14,FCCEVCGARFTQKGNLLRHIKL,-1.59
15,LMCNQCGFVCTQKGNLLRHIKL,1.09
16,FHCEICGRCFTQKGNLLRHIKL,-0.893
17,LDCEICGFFCTQKGNLLRHIKL,2.21
18,FLCNQCGAYFTQKGNLLRHIKL,0.0812
19,FCCEVCGACFTQKGNLLRHIKL,-0.375
20,FFCSVCGHVFTQKGNLLRHIKL,0.307
21,FSCPICGHPFTQKGNLLRHIKL,-0.373
22,FECDQCGAQFTQKGNLLRHIKL,-2.62
23,LSCEICGFPCTQKGNLLRHIKL,0.179
24,LRCPICGFRCTQKGNLLRHIKL,0.556
25,FMCNICGAPFTQKGNLLRHIKL,0.493

row,Sequence,log2 fold change of degron read counts
1,FKCEICGAQFTQKGNLLRHIKL,-1.99
2,FKCEVCGARFTQKGNLLRHIKL,-2.46
3,FRCDQCGAYFTQKGNLLRHIKL,-0.836
4,FECNICGASFTQKGNLLRHIKL,-1.36
5,FKCDVCGAQFTQKGNLLRHIKL,-0.953
6,FVCPICGHKFTQKGNLLRHIKL,-1.18
7,FKCPICGHQFTQKGNLLRHIKL,-0.43
8,FECDICGAHFTQKGNLLRHIKL,-2.2
9,FHCEICGAGFTQKGNLLRHIKL,-2.11
10,LVCPICGFECTQKGNLLRHIKL,0.11
11,FLCNQCGRRFTQKGNLLRHIKL,0.178
12,FNCNQCGAYFTQKGNLLRHIKL,-0.132
13,FQCEVCGAMFTQKGNLLRHIKL,-1.84
14,FLCDICGASFTQKGNLLRHIKL,-2.52
15,FMCDQCGAVFTQKGNLLRHIKL,-1.11
16,LACPICGFACTQKGNLLRHIKL,0.838
17,LKCNQCGFKCTQKGNLLRHIKL,0.368
18,FWCEICGHVFTQKGNLLRHIKL,0.127
19,FGCNICGARFTQKGNLLRHIKL,0.00155
20,FACPQCGADFTQKGNLLRHIKL,-1.96
21,FECPICGATFTQKGNLLRHIKL,-0.108
22,LYCNQCGFMCTQKGNLLRHIKL,1.14
23,LSCNQCGFPCTQKGNLLRHIKL,0.945
24,LNCNQCGFFCTQKGNLLRHIKL,1.77
25,FICNQCGRDFTQKGNLLRHIKL,-1.2
